Laboratory results published in the BET-seq Pho4 binding data (Le et al. 2018).
This is one part of the list. The energies were worked out here from pooled read counts, against the library average; single values are noisy.

target: T1, Pho4 (S. cerevisiae) (UniProt P07270); assay: relative binding free energy (BET-seq); higher = weaker binding; settings: reference: library average
T1 sequence: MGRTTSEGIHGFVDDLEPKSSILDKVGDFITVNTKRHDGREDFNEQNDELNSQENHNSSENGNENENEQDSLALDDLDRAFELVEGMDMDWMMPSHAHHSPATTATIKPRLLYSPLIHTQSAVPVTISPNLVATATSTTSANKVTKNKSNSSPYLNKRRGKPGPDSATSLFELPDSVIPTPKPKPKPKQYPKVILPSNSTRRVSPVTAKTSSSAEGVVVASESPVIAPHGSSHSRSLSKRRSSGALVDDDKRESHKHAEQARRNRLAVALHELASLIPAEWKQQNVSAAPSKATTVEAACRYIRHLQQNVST

Sequence | relative binding free energy
GGGGACACGTGGGTCG | -0.04 kcal/mol
TTGAGCACGTGCTTTT | -0.26 kcal/mol
GTCATCACGTGGTGTG | 0.05 kcal/mol
TTACTCACGTGGGAGT | 0.09 kcal/mol
AGATGCACGTGTATTT | 0.12 kcal/mol
AGTTACACGTGGTCAG | -0.05 kcal/mol
ATAGTCACGTGTAAGA | 0.13 kcal/mol
GATGACACGTGGTCGG | -0.09 kcal/mol
GTTTGCACGTGAAGCG | 0.33 kcal/mol
TATGGCACGTGAGTTA | 0.12 kcal/mol
ATAATCACGTGAGTGC | 0.37 kcal/mol
TGTGTCACGTGGCACT | 0.02 kcal/mol
GGTAACACGTGTTCGA | 0.17 kcal/mol
ACGTTCACGTGAGATG | 0.4 kcal/mol
ACGTACACGTGAGTGG | 0.35 kcal/mol
CATCTCACGTGGGGCG | 0.25 kcal/mol
TCAGGCACGTGGTGCG | -0.12 kcal/mol
TATGGCACGTGGTGGT | -0.12 kcal/mol
GATACCACGTGTTGGG | 0.11 kcal/mol
CTGGGCACGTGGTGTA | -0.13 kcal/mol
TGGTTCACGTGGTAGA | 0.28 kcal/mol
AAAGACACGTGATTGG | 0.2 kcal/mol
GGCTCCACGTGTTTGG | 0.2 kcal/mol
GTATGCACGTGGTGAA | -0.05 kcal/mol
TGTGGCACGTGTAGGA | -0.05 kcal/mol
GGGGGCACGTGTCGAT | -0.09 kcal/mol

Sequence | relative binding free energy
GATGCCACGTGTGGAG | 0.16 kcal/mol
GAAGTCACGTGTGATG | 0.28 kcal/mol
GTTGGCACGTGTTCCG | -0.04 kcal/mol
GTAAGCACGTGGCATG | -0.16 kcal/mol
TAGATCACGTGAAGTG | 0.27 kcal/mol
GCTCGCACGTGAGGTT | 0.37 kcal/mol
TGGATCACGTGGAATA | 0.18 kcal/mol
ATAGTCACGTGGATGA | -0.01 kcal/mol
TATAGCACGTGTGAAA | 0.04 kcal/mol
GGGTGCACGTGACTTT | 0.2 kcal/mol
TGTTGCACGTGCGCTT | -0.01 kcal/mol
TAGTTCACGTGTGAAT | 0.23 kcal/mol
CGTTGCACGTGGGCTT | -0.15 kcal/mol
CTATTCACGTGGTTTG | 0.19 kcal/mol
TTTAGCACGTGCATTA | -0.07 kcal/mol
TAATGCACGTGAGCGG | 0.26 kcal/mol
AGGGGCACGTGTGACG | -0.2 kcal/mol
TATTGCACGTGAAGCG | 0.13 kcal/mol
GTTGGCACGTGGAGAC | 0.05 kcal/mol
GTGTTCACGTGATTTC | 0.4 kcal/mol
ATTTTCACGTGCGGCT | 0.17 kcal/mol
TGTTGCACGTGCTGAT | -0.01 kcal/mol
TCGGGCACGTGTGATG | -0.11 kcal/mol
GTATGCACGTGTGAAA | 0.2 kcal/mol
AGGGACACGTGGCCGG | -0.02 kcal/mol
TGTGGCACGTGGGGGA | -0.21 kcal/mol

Sequence | relative binding free energy
AAGGTCACGTGTAAAT | 0.39 kcal/mol
GCGGGCACGTGTCAGG | -0.06 kcal/mol
AAGCGCACGTGTGGGA | -0.07 kcal/mol
AGAGTCACGTGGATGA | 0.19 kcal/mol
TTAGTCACGTGTCGCT | 0.05 kcal/mol
TTCGTCACGTGCTTGG | -0.03 kcal/mol
GACGGCACGTGCGTGG | -0.11 kcal/mol
ATTCACACGTGATGTG | 0.21 kcal/mol
TTTGTCACGTGCATAG | 0.05 kcal/mol
GGGATCACGTGTGTGA | 0.26 kcal/mol
GGTCACACGTGATGGT | 0.31 kcal/mol
TTAGACACGTGGGGTA | -0.19 kcal/mol
GGAGCCACGTGTTTTT | 0.04 kcal/mol
AGTTGCACGTGTAGGG | 0.1 kcal/mol
CGAGTCACGTGTGTGA | 0.04 kcal/mol
GGTATCACGTGGGCTT | 0.05 kcal/mol
TAAGTCACGTGTAAGA | 0.22 kcal/mol
TAACGCACGTGGGATG | -0.22 kcal/mol
GTTGGCACGTGTGGTC | 0.08 kcal/mol
CATTACACGTGTTGGT | 0.03 kcal/mol
GTGTGCACGTGAAGGC | 0.17 kcal/mol
AGAATCACGTGGTTGG | 0.13 kcal/mol
ATATTCACGTGTAGTT | 0.25 kcal/mol
CTAGGCACGTGGGATT | -0.13 kcal/mol
GGGCACACGTGGAGGT | 0.05 kcal/mol
CGGTGCACGTGTGTTG | -0.02 kcal/mol

Sequence | relative binding free energy
TTGATCACGTGGGATC | 0.09 kcal/mol
CATTACACGTGGTTGG | 0.04 kcal/mol
TGCGCCACGTGGTAGG | -0.14 kcal/mol
CTGGGCACGTGTTAGT | -0.06 kcal/mol
AATGTCACGTGGTGAT | 0.05 kcal/mol
TATGACACGTGTGAAT | 0.05 kcal/mol
ATTGACACGTGCTGAG | 0.02 kcal/mol
TGTGGCACGTGGAAGA | -0.12 kcal/mol
CGTTGCACGTGGCTTG | -0.13 kcal/mol
AGATTCACGTGTGTCT | 0.17 kcal/mol
AAGTTCACGTGGCGCT | 0.25 kcal/mol
ATTGGCACGTGGCCGG | -0.21 kcal/mol
AAGCGCACGTGGGGCG | -0.21 kcal/mol
TATTTCACGTGAGGCA | 0.61 kcal/mol
TGGGACACGTGCGGTC | 0.07 kcal/mol
GTCGACACGTGGTGCG | -0.04 kcal/mol
GACAGCACGTGGTTGG | -0.01 kcal/mol
TTCTACACGTGGTTTT | 0.03 kcal/mol
ATTCACACGTGTTAGG | -0.04 kcal/mol
CTTAGCACGTGATGTG | 0.02 kcal/mol
GGGTTCACGTGAGAAG | 0.5 kcal/mol
GGTAGCACGTGCCGGG | -0.08 kcal/mol
ACTGTCACGTGGGGCG | 0.07 kcal/mol
CTTGGCACGTGGTACG | -0.26 kcal/mol
AATGTCACGTGTGAAG | 0.14 kcal/mol
TTTTCCACGTGAGGTA | 0.25 kcal/mol

Sequence | relative binding free energy
TTCGCCACGTGTAGGG | -0.12 kcal/mol
CTAGACACGTGAGGTG | 0.2 kcal/mol
TTTCTCACGTGTGGAT | 0.26 kcal/mol
GGGGGCACGTGGGGAC | -0.15 kcal/mol
AGGTTCACGTGTCCTG | 0.28 kcal/mol
AAGTTCACGTGCATGT | 0.2 kcal/mol
AGCGGCACGTGGGCGG | -0.13 kcal/mol
AACGACACGTGTTGGG | 0.02 kcal/mol
GTTAACACGTGGTGTG | -0.02 kcal/mol
TATTACACGTGATGTA | 0.1 kcal/mol
GTCCTCACGTGGTGTG | 0.15 kcal/mol
ATGTCCACGTGATAGG | 0.15 kcal/mol
CGTTACACGTGAGGGT | 0.15 kcal/mol
AAGGACACGTGGTTGA | -0.02 kcal/mol
TTTGGCACGTGCAAGG | -0.12 kcal/mol
GTCTGCACGTGTTATG | 0.18 kcal/mol
CGGTTCACGTGTTGTT | 0.36 kcal/mol
ATCAGCACGTGGTTAT | -0.06 kcal/mol
TTGTGCACGTGGCCTG | -0.23 kcal/mol
TTGGTCACGTGCACTT | 0.07 kcal/mol
TGTATCACGTGGTTGG | 0.12 kcal/mol
CGGCGCACGTGGTGTA | -0.16 kcal/mol
TTCTTCACGTGGAGGT | 0.34 kcal/mol
TCGTACACGTGTTGAT | 0.07 kcal/mol
TGTGACACGTGATTCG | 0.02 kcal/mol
CTTGGCACGTGAGAGA | 0.2 kcal/mol

Sequence | relative binding free energy
TCTCTCACGTGTGTTG | 0.2 kcal/mol
TGAGACACGTGTGGCT | 0.15 kcal/mol
GTGGTCACGTGTGATC | 0.33 kcal/mol
GTTGGCACGTGAGGCA | 0.18 kcal/mol
AAGCGCACGTGGTGGA | -0.17 kcal/mol
GGCTGCACGTGGGTGT | -0.06 kcal/mol
TTATGCACGTGGAGTT | -0.04 kcal/mol
TGGGGCACGTGGCGAG | -0.09 kcal/mol
ATGTGCACGTGTATGA | 0.06 kcal/mol
TGGAACACGTGATTGG | 0.2 kcal/mol
GTCTGCACGTGTCGTG | 0.09 kcal/mol
TCATGCACGTGTGGGA | -0.09 kcal/mol
GCTATCACGTGGTATG | 0.06 kcal/mol
ACTTGCACGTGGTTGC | 0.04 kcal/mol
AGTGTCACGTGTTCAT | 0.07 kcal/mol
TGTAGCACGTGATGGA | 0.15 kcal/mol
CATGTCACGTGTTTAG | 0.07 kcal/mol
TTTTCCACGTGATTGG | 0.22 kcal/mol
GATGTCACGTGAGGCA | 0.3 kcal/mol
GCGGTCACGTGGACGG | 0.13 kcal/mol
CTGTACACGTGGAGTA | 0.11 kcal/mol
TAGTGCACGTGTGGAC | 0.2 kcal/mol
CTTTACACGTGTGTAA | 0.06 kcal/mol
ATGGCCACGTGATAGG | 0.03 kcal/mol
AATATCACGTGAATGG | 0.33 kcal/mol
CTAGGCACGTGGAGGT | -0.12 kcal/mol

Sequence | relative binding free energy
ACTGACACGTGTGGGT | 0.08 kcal/mol
TATTTCACGTGGTAGT | 0.13 kcal/mol
ATTGCCACGTGTGATT | 0.04 kcal/mol
TGGTTCACGTGACCGT | 0.34 kcal/mol
TATGGCACGTGAAGTA | 0.2 kcal/mol
ATGTGCACGTGTAGCG | -0.01 kcal/mol
ACTATCACGTGGGGGT | 0.02 kcal/mol
TCTAACACGTGGGTGC | 0.02 kcal/mol
CTAGGCACGTGGAGAT | -0.05 kcal/mol
GGAGGCACGTGTATGG | -0.07 kcal/mol
CAGGGCACGTGAGTTA | 0.29 kcal/mol
GTGGTCACGTGCTTGC | 0.12 kcal/mol
AGTTACACGTGCTGAG | 0.15 kcal/mol
AAAGGCACGTGGGTTC | -0.03 kcal/mol
TATGGCACGTGATGAA | -0.01 kcal/mol
GTGAGCACGTGTAAAT | 0.13 kcal/mol
ATTTGCACGTGATGTA | 0.02 kcal/mol
TTGAACACGTGGTTGA | -0.13 kcal/mol
AGTGGCACGTGTATGT | -0.04 kcal/mol
GTTAACACGTGCGTTG | -0.14 kcal/mol
TGATTCACGTGTTTCT | 0.23 kcal/mol
TTGCACACGTGTGTAA | 0.09 kcal/mol
AGGACCACGTGGTTTT | 0.04 kcal/mol
TGTGACACGTGTAAAT | 0.13 kcal/mol
TTCTGCACGTGACGTT | 0.19 kcal/mol
TGAACCACGTGGTGAT | 0.06 kcal/mol

Sequence | relative binding free energy
GTCTTCACGTGTCGGG | 0.19 kcal/mol
CGGGTCACGTGGTATT | -0.01 kcal/mol
TATGCCACGTGGTGGG | -0.18 kcal/mol
GGTATCACGTGGCGTA | 0.09 kcal/mol
TACGTCACGTGAGTAG | 0.32 kcal/mol
AGCGGCACGTGGGGTC | -0.19 kcal/mol
TGTATCACGTGCTTGT | 0.01 kcal/mol
TGACGCACGTGTGCGG | -0.06 kcal/mol
CGTTTCACGTGAGGCT | 0.4 kcal/mol
AGGTCCACGTGGGATA | -0.04 kcal/mol
GAAAGCACGTGTGGAG | -0.08 kcal/mol
GTAAACACGTGCGGTG | 0 kcal/mol
TGAGTCACGTGTAGGC | 0.14 kcal/mol
GATAACACGTGTTGTG | 0 kcal/mol
TATACCACGTGGTTGA | -0.05 kcal/mol
GTTTACACGTGAAGCT | 0.3 kcal/mol
GGTTACACGTGGTTAC | 0.11 kcal/mol
GTGTGCACGTGCTTTA | -0.17 kcal/mol
GTATCCACGTGTTGTG | 0.02 kcal/mol
TGTGGCACGTGCGATT | -0.11 kcal/mol
CAGGGCACGTGGCGGT | -0.2 kcal/mol
AAGTGCACGTGAAGGG | 0.14 kcal/mol
TAAGACACGTGGGTAG | -0.11 kcal/mol
GAGAACACGTGGCTGG | 0.13 kcal/mol
GGACACACGTGTGAGG | 0.07 kcal/mol
TAACGCACGTGTTGTG | -0.17 kcal/mol

Sequence | relative binding free energy
TTCGCCACGTGGGGGC | -0.17 kcal/mol
CGTTTCACGTGGGGTA | 0.19 kcal/mol
TGTTTCACGTGCTGTG | 0.2 kcal/mol
AGGGGCACGTGGCAAG | -0.19 kcal/mol
GTTGACACGTGACGAG | 0.24 kcal/mol
AGGGTCACGTGAGTTG | 0.37 kcal/mol
AAGGACACGTGGAGTT | -0.07 kcal/mol
TGGGTCACGTGCTCAT | 0.14 kcal/mol
AGCTGCACGTGTGGTT | -0.07 kcal/mol
TCAAACACGTGTGTTG | 0.06 kcal/mol
GTTTACACGTGTTACG | 0.26 kcal/mol
GCTGTCACGTGTTGCT | 0.13 kcal/mol
TCTTACACGTGTTATG | 0.13 kcal/mol
TTTGGCACGTGGTACG | -0.1 kcal/mol
GATTGCACGTGGGTAC | -0.01 kcal/mol
AAAGGCACGTGCTGGT | -0.08 kcal/mol
AGGTACACGTGGTACG | 0.05 kcal/mol
GGGTACACGTGTGATA | 0.26 kcal/mol
GACGGCACGTGGAGTG | -0.06 kcal/mol
TGTGGCACGTGTAATC | 0.04 kcal/mol
GGTTCCACGTGTTTAT | 0.19 kcal/mol
TTGGACACGTGAGTTG | 0.28 kcal/mol
